{"source": "paper PMC6451091", "note": "The list shows a part of the results. Measured with an extract: partners may take part in the binding."}
{"biological_target": "T1, FLI1 (endogenous, THP-1 nuclear extract) (UniProt Q01543)", "T1 sequence": "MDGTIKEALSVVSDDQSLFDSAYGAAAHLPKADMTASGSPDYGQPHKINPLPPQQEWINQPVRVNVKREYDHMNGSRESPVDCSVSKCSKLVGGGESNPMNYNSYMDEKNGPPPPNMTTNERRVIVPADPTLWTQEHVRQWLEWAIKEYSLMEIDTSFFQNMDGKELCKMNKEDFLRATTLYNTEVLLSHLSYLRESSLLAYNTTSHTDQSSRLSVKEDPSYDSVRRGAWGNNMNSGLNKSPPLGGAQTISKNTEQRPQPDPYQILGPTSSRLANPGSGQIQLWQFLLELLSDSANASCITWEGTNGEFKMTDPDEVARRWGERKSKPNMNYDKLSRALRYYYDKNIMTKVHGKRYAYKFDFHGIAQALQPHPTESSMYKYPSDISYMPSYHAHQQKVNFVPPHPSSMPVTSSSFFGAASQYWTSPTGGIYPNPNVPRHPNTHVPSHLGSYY", "assay": "nuclear extract protein-binding microarray (nextPBM)", "conditions": "20 mM HEPES pH 7.9, 100 mM NaCl, 1 mM DTT, 0.2 mg/mL BSA, 0.02% Triton X-100, 2% milk, 0.4 mg/mL salmon testes DNA; 1 h; temperature not stated; high values mean tight binding; double strand, one strand shown; sequences stand for … in GCCTAGCAC…GTGCTAGGTCTTGATTCGCTTGACGCTGCTG", "units": {"binding signal": "z-score"}}
{"sequence": "GACAGGAGGAAGTGGAACTC", "binding signal": 2.88}
{"sequence": "ACAGGAAGGAAGTGTGGGGA", "binding signal": 2.97}
{"sequence": "TGAAAGAGAAAGTGCAACCA", "binding signal": -0.294}
{"sequence": "AGAATAGGGAAGTGACTTAA", "binding signal": 2.81}
{"sequence": "GTTAAAGGGAAGTCCCCAAA", "binding signal": 1.37}
{"sequence": "GAAATCAGGAAGTCCCATAG", "binding signal": 2.62}
{"sequence": "AGCAGGAGGAAGTGGGTGGA", "binding signal": 2.69}
{"sequence": "AAAAAAAGGAACTGACTAGA", "binding signal": 1.04}
{"sequence": "GAGGAAGGGAAGTGAGACAT", "binding signal": 1.58}
{"sequence": "TTAAAGAGGAAGTGCAACCA", "binding signal": 3.55}
{"sequence": "GAGAAGAGGAAATGAGTGTG", "binding signal": 2.7}
{"sequence": "GAAAAGAGGAAGTTGGGGAA", "binding signal": 5.17}
{"sequence": "AAGAAGAGGAAGTGGTTTGT", "binding signal": 3.7}
{"sequence": "GAATAGAGGAAGTGGGGCCG", "binding signal": 2.95}
{"sequence": "AAAAAAAGGAAATGAAAATG", "binding signal": 2.35}
{"sequence": "CGAAAGGGGAAGTGCTAGAC", "binding signal": 2.9}
{"sequence": "CGGAAGAGGAAGTGGTTGCG", "binding signal": 5.06}
{"sequence": "GAAAATGGGAAGTGACCGCA", "binding signal": 2.02}
{"sequence": "AGAAACAGGAAGTGGGTAAA", "binding signal": 5.45}
{"sequence": "AGAAAGAGGAACTACAAGGC", "binding signal": 2.91}
{"sequence": "TGCCGGAGGAAGTGGCATGC", "binding signal": 2.03}
{"sequence": "TCACAGAGGAAGTGATAGTA", "binding signal": 2.61}
{"sequence": "GAAATGAGGAAATACTGTGA", "binding signal": 1.8}
{"sequence": "GGGTTGGGGAAGTGGGGGTA", "binding signal": 1.04}
{"sequence": "GCAATGGGGAAGTGGTTTGC", "binding signal": 2.49}
{"sequence": "TAAAAGAGGAAGTGCATTCA", "binding signal": 4.66}
{"sequence": "AAAAAAAGGAAATGGATCCT", "binding signal": 2.42}
{"sequence": "GTAAAGAGGAAGTCAGACTG", "binding signal": 3.31}
{"sequence": "AAAAAAAGGAACTGGCTAAA", "binding signal": 1.38}
{"sequence": "GAAAAGAGGAACTGCATGGG", "binding signal": 2.61}
{"sequence": "AAGAAGAGGAACTGGCAAGT", "binding signal": 1.52}
{"sequence": "TTGGAAAGGAAGTACTGTGG", "binding signal": 2.04}
{"sequence": "GAAGACAGGAAGTCCCATAG", "binding signal": 4.26}
{"sequence": "GGAAACAGGAAGTGAGATAA", "binding signal": 5.44}
{"sequence": "TGAAGAGGGAAGTGAGAGAG", "binding signal": 1.66}
{"sequence": "GGAAAAAGGAAGTCCTGTCA", "binding signal": 2.64}
{"sequence": "CAAAGAGGGAAGTGGATGCT", "binding signal": 1.84}
{"sequence": "TTGAAAAGGAAGTGGGCGAG", "binding signal": 2.47}
{"sequence": "TTTATGAGGAAGTGGAGGCA", "binding signal": 2.58}
